# “And” between values parts separate entries of the source, which are not always exact repeats. Identical values can stand only once. The campaign covered roughly 240,000 compounds. About 15 (0.006%) were called active. The inconclusive results got no clear call from the source; some entries with a clear call stand among them for comparison. Calls come from the whole dose curve; as a rule, active = well fitted inhibition curve with a large enough effect; inconclusive = small, poorly fitted or top-dose-only effect, or effect the other way, or another doubt; inactive = no such curve, though single readings can be large or run the other way. A potency beside an inconclusive call is a rough fit, not a confirmed value.
# Molecular target: Lysosomal alpha-glucosidase (Homo sapiens) (UniProt P10253)
# Experiment: qHTS Assay for Inhibitors and Activators of Human alpha-Glucosidase From Spleen Homogenate
# Settings: 4-MU-alpha-glucoside fluorescence; series mostly up to 79.9 µM
# Summary of the method: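 Compounds were titrated against alpha-glucosidase in spleen homogenate at pH 5.0, with 1 mM 4-methylumbelliferyl substrate for 40 min at 37 C. Reactions were quenched with pH 10 NaOH/glycine and fluorescence measured.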
# Potency is the fitted concentration of half-maximal effect; tags give direction and shape of the fitted curve.
row,SMILES,Potency
1,C[C@@H]1Cc2c(Cl)cc(C(=O)N[C@@H](Cc3ccccc3)C(=O)O)c(O)c2C(=O)O1,"inconclusive: 35.5 µM [activator, partial curve]"
2,Cc1cc(C(F)(F)F)c(C#N)c(=O)[nH]1,"inconclusive: 35.5 µM [activator, single point]"
3,Cc1nn(CC(=O)OCC(=O)Nc2ccccc2[N+](=O)[O-])c(C)c1[N+](=O)[O-],"inconclusive: 0.891 µM [inhibitor, full curve, poor fit]"
4,Cc1ccc(S(=O)(=O)N2CCN(CC(=O)N/N=C\c3ccc(O)c(O)c3)CC2)cc1,"inconclusive: 5.01 µM [inhibitor, full curve, poor fit]"
5,CC1CC(C)CN(C(=O)c2ccccc2Nc2ccc(SC(F)F)cc2)C1 (stereo not given),"inconclusive: 11.2 µM [inhibitor, single point]"
6,CCC1(OC(=O)CN)C(=O)OCc2c1cc1n(c2=O)Cc2cc3ccccc3nc2-1 (stereo not given),"inconclusive: 35.5 µM [activator, partial curve]"
7,Cc1ccc(-c2cnn(-c3cccc([N+](=O)[O-])c3)c2N)cc1,"inconclusive: 50.1 µM [inhibitor, single point]"
8,CC[C@@]1(O)C(=O)OCc2c1cc1n(c2=O)-c2cc3ccccc3nc2C1,"inconclusive: 28.2 µM [activator, full curve, poor fit] and inconclusive: 17.8 µM [activator, partial curve]"
9,CCCN1CNc2c(c(=O)[nH]c(=S)n2CCc2ccc(OC)c(OC)c2)C1,"inconclusive: 22.4 µM [activator, partial curve]"
10,COc1ccc2cc3cc(C(=O)NCC4CCCO4)oc3nc2c1 (stereo not given),"inconclusive: 35.5 µM [activator, partial curve]"
11,Cc1nn(Cc2ccc(Cl)cc2)c(Cl)c1/C=N/NC(=O)CNc1ccccc1F,"inconclusive: 1 µM [inhibitor, partial curve]"
12,Brc1ccc2nc(CSc3ncn[nH]3)cn2c1,inactive
13,C=CCNc1nc(N)c(C(=C(C#N)C#N)c2ccccc2)s1,"inconclusive: 22.4 µM [activator, single point]"
14,Cc1ccc(S(=O)(=O)Nc2ccc(O)c3ncccc23)cc1,inactive
15,CCCS(=O)(=O)N1CCC(C(=O)NCc2ccccc2Cl)CC1,"inconclusive: 0.178 µM [inhibitor, full curve, poor fit]"
16,Nc1nc2c(s1)CCc1c-2cnn1-c1ccccc1,"inconclusive: 50.1 µM [inhibitor, single point]"
17,Fc1ccccc1N1CC(c2ccccc2)C(c2cccs2)=N1 (stereo not given),"inconclusive: 44.7 µM [activator, single point]"
18,Cc1ccc(-n2c(C)cc(/C=N/NC(=O)Cn3c4ccccc4c(=O)c4ccccc43)c2C)cc1,"inconclusive: 39.8 µM [activator, single point]"
19,Cc1cc(=O)oc2cc(OC(=O)c3ccccc3)ccc12,"inconclusive: 39.8 µM [activator, partial curve]"
20,Cc1ccc(N2C(=O)[C@@H]3[C@H](C2=O)C2c4ccccc4C=CN2[C@@H]3C(=O)c2ccco2)c(C)c1 (stereo not given in full),"inconclusive: 0.794 µM [inhibitor, single point]"

row,SMILES,Potency
1,NS(=O)(=O)c1ccc(N2N=C(c3ccc(Br)cc3)CC2c2ccc(F)cc2)cc1 (stereo not given),"inconclusive: 31.6 µM [activator, single point]"
2,COc1cc2cc(C(N)=O)c(N)nc2cc1OC,"inconclusive: 25.1 µM [activator, single point]"
3,CN(CCOc1ccccc1)Cc1nc2cc(Cl)ccc2c(=O)[nH]1,"inconclusive: 22.4 µM [inhibitor, partial curve, poor fit]"
4,CC1=C(C#N)C(c2cccnc2)C2=C(CC(c3ccc(Cl)cc3)CC2=O)N1 (stereo not given),"inconclusive: 25.1 µM [activator, partial curve]"
5,CCCCc1cc(=O)oc2c(CN3CCCC3)c(O)c(Cl)cc12,"inconclusive: 25.1 µM [activator, partial curve]"
6,COC(=O)C1=CN(C)C=C(C(=O)OC)C1c1ccccc1Cl,"inconclusive: 35.5 µM [activator, single point]"
7,CCCc1nc(NCC2CCCO2)c2nnn(Cc3ccccc3)c2n1 (stereo not given),"inconclusive: 2.51 µM [inhibitor, partial curve]"
8,O[C@@H]1[C@H](O)[C@H]2[C@@H](O)CCN2C[C@@H]1O,active: 35.5 µM
9,Cc1ccc(C)n1-c1nccc(-c2ccco2)n1,"inconclusive: 35.5 µM [activator, partial curve]"
10,COC(=O)[C@H](Cc1ccccc1)NC(=O)N1CCC(C)CC1,"inconclusive: 44.7 µM [inhibitor, single point]"
11,COc1ccc(CN(CCC(c2ccccc2)c2ccco2)C(=O)c2ccco2)cc1 (stereo not given),"inconclusive: 0.251 µM [inhibitor, full curve, poor fit]"
12,CCNc1ncc2nc(-c3cc(F)cc(F)c3)c(=O)n(CCC#N)c2n1,inactive
13,Cc1ccc(NN=C2C(=O)OC(C)(C)OC2=O)c(C)c1,"inconclusive: 56.2 µM [inhibitor, single point]"
14,CC(=O)c1cc2cc(O)ccc2o1,"inconclusive: 35.5 µM [activator, partial curve]"
15,CSCC[C@H](NC(=O)[C@H](CC(C)C)N(C)C(=O)[C@@H]1CCCN1C(=O)[C@H](Cc1ccccc1)NC(=O)[C@H](Cc1ccccc1)NC(=O)CCC(C)N)C(=O)O (stereo not given in full),inactive
16,COC(=O)[C@@H](N)Cc1ccc(O)c(O)c1,inactive
17,COc1cccc(C2CN(c3ccc(F)cc3F)N=C2c2cccs2)c1OC (stereo not given),"inconclusive: 39.8 µM [activator, single point]"
18,O=C(Nc1ccc(Cl)cc1)c1ccc(Br)cc1F,"inconclusive: 50.1 µM [activator, single point]"
19,Cc1ccc(-c2cc(C(=O)O)c3sc(N4CCCCC4)nc3n2)cc1,"inconclusive: 11.2 µM [activator, partial curve]"
20,O=C(OCC(=O)N1CCCCCC1)c1ccc(S(=O)(=O)N2CCOCC2)cc1,inactive

# Source: PubChem BioAssay AID2112 (National Center for Advancing Translational Sciences (NCATS), 2009)
